Data from paper doi:10.1101/2024.08.07.607021.
No constants are given. Whether binding was seen depends on the method and setting. Binding seen in cells or lysates may run through a third protein. Some entries that bind do so weakly or less than the wild type.

Amino acid sequences for entries named in this document (tags omitted). A change or cut given only in a name is not applied to a line headed by its entry.
UniProt Q01628: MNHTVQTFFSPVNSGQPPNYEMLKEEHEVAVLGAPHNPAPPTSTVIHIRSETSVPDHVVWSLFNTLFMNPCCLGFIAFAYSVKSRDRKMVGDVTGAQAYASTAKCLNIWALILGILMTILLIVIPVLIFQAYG

Target: T1, endogenous STX8 (HEK293T) (human (endogenous in HEK293T)) (UniProt Q9UNK0)
T1 sequence: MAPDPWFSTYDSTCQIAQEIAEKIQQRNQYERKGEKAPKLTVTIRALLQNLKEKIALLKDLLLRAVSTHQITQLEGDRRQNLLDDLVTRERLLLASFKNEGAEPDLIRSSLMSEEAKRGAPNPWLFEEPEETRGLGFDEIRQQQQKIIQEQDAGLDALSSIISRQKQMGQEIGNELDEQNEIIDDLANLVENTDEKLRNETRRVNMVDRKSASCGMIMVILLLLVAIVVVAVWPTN
Experiment: co-IP; HEK293T stably expressing Empty Vector, IFITM3 WT-FLAG or IFITM3 G95L-FLAG, inoculated with IAV or medium for 18 hours; endogenous STX8 immunoprecipitated with anti-STX8; immunoblot with anti-STX8, anti-FLAG, anti-VAMP8, anti-VAMP7

## IFITM3-FLAG G95L (from UniProt Q01628 1-133)
  binding: binds

## IFITM3-FLAG WT (interferon-induced transmembrane protein 3) (from UniProt Q01628 1-133)
  binding: binds
